Data published in US4146717A, “Nitroquinazolinone compounds having antiviral properties” (priority 1974, dated 1979).

System: Influenza virus FM-1 strain
Settings: 200 mg/kg subcutaneously, 14 days observation, control 0/8

For `O=c1nc(-c2ccccc2)c2cc([N+](=O)[O-])ccc2n1CC1CCCCO1` (stereo not shown) [compound 5], the Survival rate was 4/8.
